Out of some 71,000 compounds screened, about 1,800 (2.5%) were called active. The inconclusive results got no clear call from the source; some entries with a clear call stand among them for comparison. Calls come from the whole dose curve; as a rule, active = well fitted activation curve with a large enough effect in the signal ratio, with a control signal flat (not every such curve was filed as active); inconclusive = small, poorly fitted or top-dose-only effect, or effect the other way, or a change in a side signal; inactive = flat fitted curve, though single readings scatter; the % refers to the signal ratio. Where the call is inconclusive, the potency comes from a doubtful curve fit.
Test: Cell signaling CRE-BLA (Fsk stim); for activity change, negative = inhibition: % of control where 0% means no effect
Conditions: CHO CRE-bla reporter (cAMP response element driving beta-lactamase), forskolin EC10, beta-lactamase ratio; activity change, negative = inhibition: at 38.2 µM (top of the series) unless noted
Method in brief: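 qHTS titration format; CRE-bla CHO reporter; stimulus EC10 NKH 477, a water-soluble forskolin. Read: CCF4 460/530 nm ratio. Potency expressed as AC50 for activators or inhibitors.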
In the case of `CCOC(=O)Cc1csc(NC(=O)c2cnc3scc(C)n3c2=O)n1`, the activity change, negative = inhibition is reported as “inactive”.
With `CNC(=O)[C@@H]1O[C@@H](n2cnc3c(NCc4ccc(N)cc4)ncnc32)[C@@H](O)[C@H]1O` the activity change, negative = inhibition was “inactive”.
For `Cc1nc2cnc(OCc3ccccc3)nc2n(CCC#N)c1=O`, the activity change, negative = inhibition was “inactive”.
For `N#CC1=C(SCc2ccccc2)NC(=O)CC1c1ccc(O)cc1` (centres undefined), the Potency was inconclusive: 0.02 µM [rising, single point].
With `CCOc1ccc(-n2c(Cc3cc(=O)[nH]c(=O)[nH]3)nnc2SCC(N)=O)cc1` the activity change, negative = inhibition was inconclusive: 16.6%.
With `CCn1c(CNc2cccc(Cl)c2)nnc1SCC(=O)OC1CCCCC1` the Potency was inconclusive: 0.0794 µM [falling, single point].
In the case of `Cc1cccc(CNc2cc(-c3ccccc3C)ncn2)c1`, the activity change, negative = inhibition is reported as inconclusive: 31.9%.
In the case of `COc1ccc(NS(=O)(=O)c2ccc(OCC(=O)N3CCCC3)cc2)cc1`, the activity change, negative = inhibition is reported as “inactive”.
With `O=C(CCn1c(=O)sc2ccccc21)NC1=NCCS1` the Potency was inconclusive: 15.8 µM [falling, partial curve, poor fit].
With `Cn1nnc(NC(=O)c2ccco2)n1` the activity change, negative = inhibition was “inactive”.
In the case of `N#CC1=C(N)OC2=C(CCC/C2=C/c2ccoc2)C1c1ccoc1` (centres undefined), the activity change, negative = inhibition is reported as “inactive”.
In the case of `COc1cc2c(cc1NC(=O)CN1C(=O)NC3(CCc4ccccc43)C1=O)oc1ccccc12` (centres undefined), the activity change, negative = inhibition is reported as “inactive”.
For `O=C(Nc1ccccc1Cl)c1cc(S(=O)(=O)N2CCCC(C(=O)O)C2)ccc1F` (centres undefined), the activity change, negative = inhibition was inconclusive: -1.74%.
For `C=CCn1c(SCC(=O)Nc2cc(C)ccc2OC)nnc1-c1ccco1`, the Potency was inconclusive: 10 µM [rising, single point].
In the case of `O=C(NCCc1ccccc1)c1cc(-c2ccc3c(c2)OCO3)on1`, the activity change, negative = inhibition is reported as inconclusive: -12.2%.
For `O=c1c2c(nc3c(-c4cccc5ccccc45)c[nH]n13)CCC2`, the activity change, negative = inhibition was “inactive”.
In the case of `COc1ccc(CNc2nc(-c3cccnc3)nn2C(=O)c2cccs2)cc1`, the Potency is reported as active: 5.01 µM.
For `COc1ccc(N(CC(=O)N2c3ccccc3CC2C)S(=O)(=O)c2c(C)noc2C)cc1` (centres undefined), the activity change, negative = inhibition was inconclusive: -2.84%.
With `CCCC(=O)Nc1ccc2c(c1)nc1n2CCSC1` the Potency was inconclusive: 12.6 µM [rising, single point].
In the case of `CC1(C)CC(=O)C(C=NCc2ccc3c(c2)OCO3)=C(O)C1`, the activity change, negative = inhibition is reported as inconclusive: 25.4%.
For `Cc1ccc(C(=O)CC2(O)C(=O)N(Cc3ccccc3Cl)c3ccccc32)o1` (centres undefined), the activity change, negative = inhibition was inconclusive: -20.6%.
With `CC(=O)Nc1cccc(NC(=O)C2CC3CCC2C3)c1` (centres undefined) the activity change, negative = inhibition was “inactive”.
With `COc1ncc2nc(-c3cccs3)c(=O)n(CCC#N)c2n1` the Potency was active: 7.94 µM.
In the case of `COc1c2occc2c(OC)c2c(=O)cc(C(F)(F)C(F)(F)F)oc12`, the activity change, negative = inhibition is reported as inactive: 1.05% [at 7.6 µM].
In the case of `CC/C(=C\C(=O)c1cccnc1)Nc1ccc(C)c(C)c1`, the Potency is reported as inconclusive: 3.16 µM [falling, partial curve, poor fit].
For `COc1cccc(-c2nnc(N(C)C(=O)C3CCOC3)s2)c1` (centres undefined), the Potency was inconclusive: 12.6 µM [rising, single point].
With `COc1ncc2nc(CCc3ccccc3)c(=O)n(Cc3cccs3)c2n1` the Potency was active: 12.6 µM.
For `CCOC(=O)N1CCN(C(=O)c2cnsn2)CC1`, the activity change, negative = inhibition was inconclusive: -0.142%.
In the case of `COc1cc(C(=O)Oc2ccccc2N)cc(OC)c1OC`, the Potency is reported as inconclusive: 3.98 µM [rising, partial curve].
With `Cc1ccc(Oc2ccc(-c3nc(N)nc(N)n3)cc2)cc1` the Potency was inconclusive: 7.94 µM [rising, partial curve].
For `CCOC(=O)Cc1csc(NC(=O)CCS(=O)(=O)Cc2ccccc2)n1`, the activity change, negative = inhibition was inconclusive: 13.6%.
In the case of `Cn1c(SCc2cccnc2)nc2cccnc21`, the activity change, negative = inhibition is reported as inconclusive: 26%.
In the case of `COc1cc(C)cc2c(-c3c(O)cc(O)c4c3C[C@H](C)N[C@@H]4C)cc(-c3cc(-c4c(O)cc(O)c5c4C[C@H](C)N[C@@H]5C)c4cc(C)cc(OC)c4c3O)c(O)c12`, the activity change, negative = inhibition is reported as inconclusive: -6.52% [at 7.6 µM].
In the case of `c1ccc2nc(-c3nc4ccccc4o3)ccc2c1`, the activity change, negative = inhibition is reported as “inactive”.
In the case of `Cc1nc(-c2ccccc2)nc2[nH]c(C(C)C)cc(=O)c12`, the Potency is reported as inconclusive: 12.6 µM [rising, single point].
In the case of `O=C(CSc1ccc(Cl)cc1)c1ccco1`, the activity change, negative = inhibition is reported as inconclusive: 16.4%.
In the case of `Cc1cc(=O)oc2cc(OCC(=O)N3CCCc4ccccc43)ccc12`, the activity change, negative = inhibition is reported as “inactive”.
For `CCCCCCOC(=O)C(C#N)c1nc2ccccc2nc1N1CCCCC1` (centres undefined), the activity change, negative = inhibition was inconclusive: 9.58%.
For `CCOC(=O)C1CCN(C(=O)CSC2=NCCS2)CC1`, the activity change, negative = inhibition was “inactive”.
In the case of `O=C(c1ccccc1F)N(Cc1ccc(F)cc1)C1CCS(=O)(=O)C1` (centres undefined), the activity change, negative = inhibition is reported as “inactive”.
For `CC(C)(C)c1cc(C(=O)N2CCc3ccccc32)ccn1`, the activity change, negative = inhibition was inconclusive: -6.78%.
For `Cc1ccc(-c2[nH]c(=O)n3ccncc23)s1`, the activity change, negative = inhibition was “inactive”.
With `COc1ccccc1C(=O)NCCc1nc2ccccc2[nH]1` the Potency was inconclusive: 12.6 µM [rising, partial curve].
For `CC(C)C(NS(=O)(=O)c1ccc2c(c1)OCCO2)C(=O)NCCc1ccccn1` (centres undefined), the activity change, negative = inhibition was inconclusive: -4.66%.
With `Cc1ccc(S(=O)(=O)Nc2nncs2)cc1` the activity change, negative = inhibition was inconclusive: -6.51%.
For `CN(C)c1nc2n(c(=O)n1)CCO2`, the activity change, negative = inhibition was inconclusive: -5.54%.
In the case of `Cc1n[nH]c(C)c1N1C(=O)c2cccc3c(N4CCCCCC4)ccc(c23)C1=O`, the activity change, negative = inhibition is reported as inconclusive: -14.8% [fluorescent].
For `CCOc1ccc(NC(=O)CC2CC(C)(C)OC2=O)cc1` (centres undefined), the activity change, negative = inhibition was “inactive”.
For `NS(=O)(=O)c1ccc(N=Nc2ccc(O)c(C(=O)O)c2)cc1`, the activity change, negative = inhibition was inactive: -7.32% [at 7.6 µM].
In the case of `CS(=O)(=O)N1CCCC(C(=O)NCCN2CCC(Cc3ccccc3)CC2)C1` (centres undefined), the activity change, negative = inhibition is reported as inconclusive: 2.67%.
In the case of `CC(C)OC(=O)CC(=O)CSc1nc2c(cc1C#N)CCCC2`, the Potency is reported as inconclusive: 10 µM [rising, partial curve].
In the case of `COc1cc(NC2c3ncccc3C(=O)N2Cc2ccco2)cc(OC)c1` (centres undefined), the activity change, negative = inhibition is reported as inconclusive: -3.74%.
For `COc1ccccc1-c1nc(NC(C)=O)n[nH]1`, the Potency was inconclusive: 15.8 µM [rising, single point].
With `CCn1c(CSc2nnc(-c3ccc4c(c3)OCO4)o2)nc2cc(S(=O)(=O)N(C)C)ccc21` the activity change, negative = inhibition was “inactive”.
For `CC(C)n1c(SCc2ccc(Cl)cc2)nc2c1c(=O)[nH]c(=O)n2C`, the Potency was active: 12.6 µM.
With `C=C(C#N)C(=O)OCC` the activity change, negative = inhibition was “inactive”.
For `CC1=CC(=C2C(=O)c3ccccc3C2=O)C=C(C)N1Cc1ccco1`, the activity change, negative = inhibition was “inactive”.
With `CNc1nnc(-c2cccc(N(C)C)c2)s1` the activity change, negative = inhibition was inconclusive: 23.4%.
In the case of `CCc1nc(SCC(=O)Nc2cc(C)on2)c2c(C)c(C)sc2n1`, the Potency is reported as active: 2.51 µM.
In the case of `CCOc1ccc2[nH]c(=O)c(CN(CCN3CCOCC3)Cc3nnnn3C(C)(C)CC)cc2c1`, the activity change, negative = inhibition is reported as “inactive”.
For `CCN(CC)CCNC(=O)C1CCC(=O)N1CCc1ccccc1` (centres undefined), the activity change, negative = inhibition was inconclusive: -11.8%.
With `Nc1c(-c2ccc(Cl)cc2)nnn1-c1ccccc1` the Potency was inconclusive: 20 µM [rising, single point].
With `CCc1nc(SCC(=O)NCC2CCCO2)c2oc3ccccc3c2n1` (centres undefined) the Potency was inconclusive: 7.94 µM [rising, partial curve].
For `O=S(=O)(c1cccc2c(S(=O)(=O)N3CCCC3)cccc12)N1CCCC1`, the activity change, negative = inhibition was inconclusive: 12.7%.
In the case of `Cc1cc(C)n(-c2nc(SCC(=O)N3CCCC3)c3c4c(sc3n2)CCCC4)n1`, the Potency is reported as inconclusive: 1 µM [rising, full curve, poor fit].
With `COc1ccccc1CNc1ncnc2ccc(-c3ccc(N(C)C)cc3)cc12` the Potency was inconclusive: 2.51 µM [rising, full curve, poor fit].
In the case of `c1ccc(NC2=Nc3ccccc3CS2)cc1`, the activity change, negative = inhibition is reported as “inactive”.
For `CN(C)c1nc2c(c(=O)n(C)c(=O)n2C)n1Cc1ccccc1`, the Potency was inconclusive: 25.1 µM [rising, single point].
In the case of `CCOC(=O)Cc1[nH]nc2c1C(C1C=CCCC1)C(C#N)=C(N)O2` (centres undefined), the Potency is reported as inconclusive: 15.8 µM [falling, partial curve].
In the case of `CCCCn1c(SCc2cccnc2)nc2c1c(=O)n(C)c(=O)n2C`, the Potency is reported as inconclusive: 12.6 µM [rising, single point].
With `N#Cc1cccc(NC(=O)NCCc2c[nH]c3ccccc23)c1` the activity change, negative = inhibition was inconclusive: -19.9%.
With `COc1ccc(-c2nnc(SC(=O)N3c4ccccc4Sc4ccccc43)o2)cc1` the activity change, negative = inhibition was inconclusive: 0.223% [at 7.6 µM].
In the case of `CC1S/C(=C(\C#N)C(=O)NCc2ccco2)N(c2ccc(F)cc2)C1=O` (centres undefined), the activity change, negative = inhibition is reported as inconclusive: 8.28%.
For `CN(c1ccc(Cl)cc1)c1cc(=O)n(C)c2ccccc12`, the activity change, negative = inhibition was “inactive”.
In the case of `Cc1cc(NC(c2cccnc2)c2ccc3cccnc3c2O)no1` (centres undefined), the Potency is reported as inconclusive: 3.16 µM [falling, single point].
In the case of `CCCC1=C(C(=O)OCC)C(c2ccc(NC(C)=O)cc2)NC(=O)N1` (centres undefined), the activity change, negative = inhibition is reported as “inactive”.
With `CCOc1ccc2nc(N3CCCN(C(=O)Nc4ccccc4C)CC3)c(C#N)cc2c1` the activity change, negative = inhibition was “inactive”.
In the case of `CN1CCc2c(sc3c2C(=O)NC(c2cccc(OC(=O)c4cccs4)c2)N3)C1` (centres undefined), the Potency is reported as inconclusive: 10 µM [rising, single point].
For `CCCC(=O)N(C)c1nnc(-c2ccc(OC)cc2)s1`, the activity change, negative = inhibition was “inactive”.
In the case of `O=C(CSc1nnnn1C1CCCCC1)NCCc1ccccc1`, the activity change, negative = inhibition is reported as “inactive”.
In the case of `CCOC(=O)c1c(NC(=O)c2ccco2)sc(C(=O)N2CCCC2)c1C`, the Potency is reported as active: 12.6 µM.
For `CCc1nc(N2CCOCC2)c(C#N)c2c1COC(C)(C)C2`, the Potency was inconclusive: 10 µM [rising, partial curve].
In the case of `CCOC(=O)c1sc2nc(SCC#N)n(CCCN3CCCC3=O)c(=O)c2c1C`, the Potency is reported as inconclusive: 3.98 µM [rising, full curve, poor fit].
For `CCN(CC)CCNC(=O)c1cc(Br)c(N)cc1OC`, the activity change, negative = inhibition was “inactive”.

— PubChem BioAssay AID662 (National Center for Advancing Translational Sciences (NCATS), 2007)
Potency is the fitted concentration of half-maximal effect; tags give direction and shape of the fitted curve.
